Measured values from PubChem BioAssay AID1508624 (National Center for Advancing Translational Sciences (NCATS), 2021).
The whole screen tested about 48,000 compounds, of which about 120 (0.25%) were called active. Inconclusive means that the source gave no clear call. Such entries were picked first, then a sample of the others. Calls follow the shape of the dose curve; as a rule, active = well fitted activation curve with a large enough effect; inconclusive = small, poorly fitted or top-dose-only effect, or another doubt; inactive = no such curve, though single readings can be large or run the other way. A potency beside an inconclusive call is a rough fit, not a confirmed value.

Test: Primary qHTS for Identification of Small Molecule Activators of Huntingtin-Antisense Promoter Activity; also: nearly all actives have a fitted effect of over 55% in size
Conditions: HEK293 HTT-AS promoter firefly luciferase reporter, 24 h; activity change, positive = activation: at 57.5 µM (top of the series), percent change from vehicle, -100% = no light unless noted
How it was run: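 Firefly luciferase signal from promoter-reporter HEK293 cells was scaled between vehicle (0%) and zero RLU (-100%). Compounds were tested at final concentrations of up to 57.5 uM over 24 h at 37 degrees C. PTC124 at 50 uM final served as control inhibitor.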
Potency is read from the fitted curve at half-maximal effect; tags tell the direction and shape of the fitted curve.

Potency, inconclusive:
Cn1cc(CNCC2CCN(c3ncc(C(=O)NO)cn3)CC2)c2ccccc21 4.32 µM [activator, full curve]
Cc1ccc2cc3cc(C(=O)N(C)c4ccccc4C)oc3nc2c1 3.55 µM [activator, partial curve, poor fit]
Cc1cc(Cl)ccc1NC(=O)c1cc2ccccn2n1 0.282 µM [activator, full curve, poor fit]
Cc1cccc(C(=O)Nc2cccc(OCc3cc(=O)n4ccccc4n3)c2)c1 1.78 µM [activator, partial curve, poor fit]
CCc1ccccc1NC(=O)C(=O)c1cc(C)n(-c2ccccc2F)c1C 1.41 µM [activator, full curve, poor fit]
Cc1ccc(Cl)cc1N1CCN(C(=O)c2cn(C)c3ccc(S(=O)(=O)N4CCC(C)CC4)cc3c2=O)CC1 2.82 µM [activator, partial curve, poor fit]
COc1ccc(NC(=O)Nc2cccc(C)n2)c(OC)c1 2.82 µM [activator, full curve, poor fit]
Cc1ccc2nc(-c3c[nH]c4ccccc34)c(Nc3ccccc3)n2c1 1.58 µM [activator, full curve]
COc1ccc2nc(N(Cc3cccnc3)C(=O)c3ccco3)sc2c1 2.24 µM [activator, full curve]
CCOC(=O)c1cc(-c2ccccc2)nn1Cc1ccccc1 14.1 µM [activator, partial curve, poor fit]
COc1ccc(C(CC(=O)Nc2ccc(C(C)=O)cc2)N2Cc3ccccc3C2=O)cc1 (configuration not stated) 15.8 µM [activator, partial curve]
O=c1c(NCc2cccs2)nccn1-c1ccc(F)cc1 14.1 µM [activator, partial curve]
Cc1cccc(-c2nc3c4ccccc4nc(NCCc4ccccc4)n3n2)c1 17.8 µM [activator, single point]
COc1ccc(-c2nc3cc(NC(=O)CSc4ccc(C)cc4)ccc3o2)cc1 0.282 µM [activator, full curve, poor fit]
CCc1ccc(NC(=O)Cn2ccn(-c3ccc(C)c(C)c3)c(=O)c2=O)cc1 22.4 µM [activator, partial curve, poor fit]
COc1ccc(C)cc1Nc1cc(C)nc(C)n1 15.8 µM [activator, partial curve, poor fit]
COc1ccccc1-c1noc(-c2ccc(NCC3CCCO3)c([N+](=O)[O-])c2)n1 (configuration not stated) 4.47 µM [activator, full curve]
Cc1ccc2oc(=O)n(CCCOc3ccccc3Cl)c2c1 11.2 µM [activator, partial curve, poor fit]
Cc1ccc2nc(-c3ccc(C)o3)c(Nc3ccc4c(c3)OCCO4)n2c1 11.2 µM [activator, partial curve, poor fit]
Nc1nn(-c2ccccc2)nc1C(=O)OCc1ccccc1 17.8 µM [activator, partial curve, poor fit]
CCc1ccc(C2=CC(c3c(F)cccc3Cl)n3c(nc4ccccc43)N2)cc1 (configuration not stated) 8.91 µM [activator, partial curve, poor fit]
Cc1ccc(/C=C(\C#N)C(=O)Nc2cccc(Br)c2)o1 2.51 µM [activator, full curve, poor fit]
COc1ccc(C(=O)c2sc(Nc3ccccc3)nc2N)cc1 7.94 µM [activator, partial curve, poor fit]
O=C(NCc1ccccc1)c1cc2ccc3cccnc3c2[nH]1 3.55 µM [activator, full curve]
Cc1nn2c(=O)cc(COC(=O)c3cccs3)nc2s1 5.62 µM [activator, partial curve]
Cc1ccc(Cn2cnc3nc4c(cc3c2=O)CC(C)CC4)cc1 (configuration not stated) 2.51 µM [activator, full curve]
Oc1ccc(NCc2ccccc2OCc2ccc(Cl)cc2)cc1 2.82 µM [activator, full curve, poor fit]
CC(C)(C)C1CCc2nc(NC(=O)Cc3ccccc3)sc2C1 (configuration not stated) 14.1 µM [activator, partial curve]
O=C(Cn1c(=O)nc(-c2ccccc2)c2ccccc21)NCc1ccccc1Cl 12.6 µM [activator, partial curve, poor fit]
COc1ccc(-c2cn3c(n2)sc2cc(C(=O)Nc4ccc(F)cc4)ccc23)cc1 15.8 µM [activator, partial curve, poor fit]
COc1ccc(/C=C/C(=O)Nc2ccc(C)cc2)cc1 20 µM [activator, single point]
CC(=O)c1ccc(NC(=O)Nc2ccc3snnc3c2)cc1 11.2 µM [activator, partial curve, poor fit]
Cc1ccc(C2=CC(c3ccccc3C)n3c(nc4ccccc43)N2)cc1 (configuration not stated) 0.501 µM [activator, full curve, poor fit]
Cc1ccc(/C=C(\C#N)C(=O)Nc2ccc(Br)cc2)o1 1.78 µM [activator, full curve, poor fit]
O=C(Nc1ccc(-c2nc3ccccc3o2)c(O)c1)c1cc(Cl)ccc1Cl 4.47 µM [activator, partial curve]

Potency, inactive:
FC(F)(F)c1ccc(C=Cc2nc(COc3ccc(CCCCn4ccnn4)cc3)co2)cc1
CCn1nnc2cc(C(=O)Nc3cccc(C)c3C)ccc21
Cc1cc2c(cc1S(=O)(=O)CCC(=O)Nc1ccc(OC(F)(F)F)cc1)OCC(=O)N2
CCOc1ccc(S(=O)(=O)c2cn(Cc3ccc(C)cc3)c3ccc(OC)cc3c2=O)cc1
CC(=O)Oc1c(C)c(C)c2c(c1C)CC[C@@](C)(CCC[C@H](C)CCC[C@H](C)CCCC(C)C)O2
OC[C@H]1O[C@@H](O[C@H]2[C@@H](O)[C@@](O)(CO)O[C@@H]2CO)[C@H](O)[C@@H](O)[C@@H]1O
CC(C)=CCCC(C)=CCCC(C)=CCCC(C)=CCCC(C)=CCCC(C)=CCCC(C)=CCCC(C)=CCCC(C)=CCO
Cc1cc(Nc2cccc(C(F)(F)F)c2)nc2ccc(NC(=O)c3cccc(Cl)c3)cc12
O=C(NCCc1ccccc1)c1ccc(Cn2c(SCc3ccccc3F)nc3cccnc32)cc1
COc1ccc(OC)c(CNC(=O)c2ccc3c(c2)c(C)c(C)n3C)c1
C[n+]1cc2c3c(ccc2c2ccc4cc5c(cc4c21)OCO5)OCO3
O=C(CSc1cn(CCNC(=O)c2cccc(C(F)(F)F)c2)c2ccccc12)Nc1ccc2c(c1)OCCO2
Cc1ccccc1OCCn1c(CCNC(=O)C2CCCCC2)nc2ccccc21
CCc1ccccc1-n1nnc(-c2nsc(NC(=O)c3ccc(C)c(C)c3)n2)c1C
CCOc1ccc(N2CC(NC(=O)C3CCCC3)CC2=O)cc1 (configuration not stated)
O=C(Nc1ccccc1Cl)N1CCSc2ccccc21
CCOC(=O)N1CCC(Nc2ccc(Cl)cc2N)CC1
Cc1cccc(N2CCN(C(=O)C3CCN(c4ncnc5c4nc4n5CCCCC4)CC3)CC2C)c1 (configuration not stated)
CO[C@H]1C[C@@H]2CC[C@@H](C)[C@@](O)(O2)C(=O)C(=O)N2CCCC[C@@H]2C(=O)O[C@H]([C@H](C)C[C@@H]2CC[C@H](OCCO)[C@H](OC)C2)CC(=O)[C@H](C)C=C(C)[C@@H](O)[C@@H](OC)C(=O)[C@H](C)C[C@H](C)C=CC=CC=C1C
COc1ccc(Cl)cc1NC(=O)c1c(NCc2cccnc2)sc2c1CCC(C)C2 (configuration not stated)
CCOC(=O)COc1ccc(/C=C(\C#N)c2nc3ccc(C)cc3[nH]2)cc1OC
COc1cc(C)c(Sc2cnc(NC(=O)c3ccc(CNC(C)C(C)(C)C)cc3)s2)cc1C(=O)N1CCN(C(C)=O)CC1 (configuration not stated)
COc1ccc(Nc2ncnc3c2cnn3-c2cc(Cl)ccc2C)cc1OC
CCc1ccc(-n2nnc(-c3nsc(NC(=O)c4ccccc4Cl)n3)c2C)cc1
O=C(CCn1cnc2onc(-c3ccc(F)cc3)c2c1=O)Nc1ccc(F)c(Cl)c1
COc1ccc(N2CCN(C(=O)C3CCN(Cc4nc(-c5ccc(Cl)cc5)oc4C)CC3)CC2)cc1
COc1cc(OC)cc(C(=O)Nc2ccc3nc4c(c(Nc5ccc(OC)c(OC)c5)c3c2)CCCC4)c1

Activity change, positive = activation, inconclusive:
COc1cccc(/C=C(\C#N)c2nc3ccc(C)cc3[nH]2)c1 17.6% [activator]
CCOC(=O)CSc1nc2ccc(NC(=O)c3cccc(F)c3)cc2s1 -29.1% [activator]
CCOc1cc(C(=O)NCC(c2ccc(N(C)C)cc2)N2CCOCC2)cc(OCC)c1OCC (configuration not stated) -68.6% [activator]
COc1ccc(C2C(C(=O)Nc3ccc(C)cc3C)=C(C)Nc3nc(SC)nn32)cc1OC (configuration not stated) -31.4% [activator]
COc1cccc(NC(=O)CCc2nc(-c3ccc(C(C)(C)C)cc3)no2)c1 -84.2% [activator]
